From PubChem BioAssay (NCI) come the findings set out here.

Each structure is given as a SMILES string. “And” between values parts separate entries of the source, which are not always exact repeats. Identical values can stand only once.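 96-well plates; 48 h exposure; 5 concentrations. Endpoints by linear interpolation between flanking doses. Not reached: highest tested concentration assigned. GI50 marks 50% less growth. TGI is the concentration that stops growth completely.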

The test system of the test is NCI-H322M lung. Description: NCI tumour cell line growth inhibition, 48 h.
Take `O=C1C(c2ccccc2)=[N+]([O-])c2cc([N+](=O)[O-])c(/C(Cl)=C/c3ccccc3)cc21`: the TGI is more than 100 µM.
Still for that read-out and setting: then `O=c1c2ccccc2n2c(=S)[nH]nc2n1-c1ccccc1`, with more than 100 µM; and `N#Cc1ccc(Sc2ccccc2)cc1C#N`, with more than 100 µM.
Consider `Cc1oc2c(c1C)S(=O)(=O)C(C#N)=CN2`, for which the TGI was more than 100 µM.
For `Oc1c(Cl)cc(Cl)c2ccc(Cn3cc(-c4cc(F)cc(F)c4)nn3)nc12`, the GI50 was 15.3 µM and the TGI amounted to 28.7 µM.
`O=c1ccn(C2OC(COC3CCCCO3)C(OC3CCCCO3)C2OC2CCCCO2)c(=O)n1-c1ccccc1` (stereo not given): the TGI is more than 100 µM.
The same measure, in the same setting: then `O=c1[nH]nc(Cc2ccccc2)n1O`, with more than 100 µM; and `Cc1cc(C)nc(NS(=O)(=O)c2ccc(NC(=O)c3ccc(Cl)c4c(Nc5ccc(S(=O)(=O)Nc6cc(C)on6)cc5)c5ccccc5nc34)cc2)n1`, with 30.6 µM.
As to `CC(O)(CCCCCl)c1nc2ccccc2s1` (stereo not given), the TGI is more than 100 µM.
Still for that read-out and setting: the value for `CC1=C(O)C(=O)C2C(=O)C1C(C)C2c1ccc(C)cc1` (stereo not given) was more than 100 µM.
With `CC1SC(c2ccc(Cl)c(Cl)c2)N(NC(=O)C(O)c2ccccc2)C1=O` (stereo not given), the GI50 is 60.8 µM and the TGI was more than 100 µM.
`CC(C)(C)C(=O)CC1(O)C=C(O)C(O)(CC(=O)C(C)(C)C)O1` (stereo not given) registered a TGI of more than 100 µM.
Consider `CN(CCNC(=O)c1nn(-c2ccccc2)c2c1ccc1ccccc12)CCNC(=O)c1nn(-c2ccccc2)c2c1ccc1ccccc12`, for which the TGI came out at 13.2 µM.
Turning to `CCCCn1c(C)c(C(=O)CC)c(C(=O)NCCN2CCN(c3ccccc3Cl)CC2)c1C`, the TGI came to 32.4 µM.
For the molecule `COc1cc2c(cc1OCCCCCN1CCN(c3cc(=O)oc4ccccc34)CC1)N=C[C@@H]1CCCN1C2=O`, the GI50 was 0.625 µM and the TGI was determined as 1.94 µM.
For `CC(C)=NNc1ncnc2c1ncn2C1OC(CO)C(O)C1O` (stereo not given), the GI50 was 0.376 µM.
As to `CCOCCOc1ccc(OCCOCC)cc1`, the TGI is more than 100 µM.
As to `FC(F)(F)c1ccc(CNc2ccc(Cc3c[nH]c4ncc(Cl)cc34)cn2)cn1`, the GI50 was 11.3 µM and > 10 µM; the TGI is 30.8 µM and > 10 µM.
In turn, `N#C/C(=C\c1c(Cl)cccc1Cl)c1ccccc1` returned a TGI of more than 100 µM.
Still for that read-out and setting: the value for `C/C=C\C(CC(=O)O)CN1CCC2=C(C1)C(S(=O)(=O)C(F)(F)F)c1ccccc12` (stereo not given) was more than 100 µM.
As to `CC(=O)OC1Oc2ccc(C)cc2-c2oc(=O)c(-c3cc4ccccc4oc3=O)cc21` (stereo not given), the GI50 was 8.19 µM and the TGI was determined as 22.6 µM.
The molecule `COC(=O)CCC1(NS(=O)(=O)c2ccc(C)cc2)CCC(C(C)(C)C)CC1` (stereo not given) showed a TGI of 73 µM.
As to `COc1cc(C(C)c2ccc3c(ccn3C)c2)cc(OC)c1OC` (stereo not given), the GI50 is 0.0448 µM and the TGI was more than 100 µM.
On to `O=C(CC(Cl)(Cl)C(Cl)(Cl)Cl)c1ccccc1`, for which the TGI is 26 µM.
`CCc1nc(N)nc(N)c1-c1ccc(Cc2ccccc2)c([N+](=O)[O-])c1`: the TGI is more than 61.9 µM.
On the same count and under the same terms, then `O=C1OC(=O)C2=C1C(c1cccs1)C=C(c1cccnc1)N2c1ccncc1` (stereo not given), with 31.6 µM.
As for `Cc1cccc(NC2=C(Cl)C(=O)N(Cc3ccc(Cl)cc3)C2=O)c1`, the GI50 was 10 µM and the TGI is 36.5 µM.
In turn, `NC(Cc1c[nH]c2ccccc12)P(=O)(O)O` (stereo not given) had a TGI of more than 100 µM.
`Cc1ccc(S(=O)(=O)NCCN(CCNS(=O)(=O)c2ccc(C)cc2)S(=O)(=O)c2ccc(C)cc2)cc1` came in with a TGI of more than 100 µM.
`N=C1S/C(=C/c2ccc(-c3ccc4c(c3)C(=O)NC4=O)o2)C(=O)N1c1ccc(Br)cc1`: the GI50 was more than 100 µM and the TGI was more than 100 µM.
For `COc1ccc(Cc2nc3cc([N+](=O)[O-])ccc3n2C[C@@H]2CCCN3CCCCC23)cc1` (stereo not given in full), the TGI came out at 57.7 µM.
On to `COc1ccc(CN2C(=O)C(Cl)=C(Nc3cccc(O)c3)C2=O)cc1`, for which the GI50 was 7.56 µM and the TGI was 21.9 µM.
With `CCC(=C/[C@H](C)C/C=C/C(C)=C/[C@@H](C)C(=O)[C@@H](C)[C@H](O)[C@@H](C)CC)/C=C/[C@@H]1OC(=O)C=C[C@@H]1C`, the GI50 is less than 0.005 µM and the TGI was 8.16 µM.
The molecule `O=C1OC(CC(=O)c2ccccc2Cl)C(Cl)=C1Cl` (stereo not given) gave a TGI of more than 100 µM.
Take `Cn1cc(C2=C(c3c4n(c5ccccc35)CCN(C(N)=S)C4)C(=O)NC2=O)c2ccccc21`: the GI50 is 10.9 µM and the TGI is more than 25 µM.
Consider `CCOC(=O)c1c(-c2ccccc2)oc(=O)c(Cc2cccc3cccnc23)c1-c1ccccc1`, for which the TGI was more than 10 µM.
Molecule `COCOc1cc(OC)ccc1C/C=N/O` yielded a TGI of more than 100 µM.
Molecule `Cc1c2nc3ccccc3sc-2cc(=O)c1C` displayed a TGI of more than 100 µM.
On to `CC(C1=CC=C2[C@@H]3CCC4CC(N(C)C)CC[C@]4(C)C3CC[C@]12C)N(C)C=O` (stereo not given in full), for which the TGI was more than 100 µM.
`O=C1OC(c2ccccc2)=N/C1=C\c1ccc(F)cc1`: the TGI was more than 100 µM.
Same read-out and setting: the value for `N#C/C(=C\c1cc(Br)c(O)c(Br)c1)c1ccccn1` was more than 100 µM; that for `O=c1c(C(=Nc2ccccc2)c2ccccc2)c[nH]n1-c1ccccc1` was more than 100 µM.
On to `CCCCCCCCCCCC[C@H](O)[C@H]1CC[C@H]([C@H](O)CCCC[C@H](O)CCCCC[C@@H](O)CC2=C[C@H](C)OC2=O)O1`, for which the GI50 is 14.8 µM and the TGI was found to be 29.1 µM.
`O=C(O)CC1OCC=C2C[N+]3([O-])CCC45c6ccccc6NC4C1C2CC53` (stereo not given) showed a TGI of more than 100 µM.
The molecule `COC(=O)[C@]12CC[C@H]3CN(C(=O)OCc4ccccc4)[C@H]([C@H]31)[C@H](C(=O)OCC[Si](C)(C)C)N2S(=O)(=O)c1ccc(C)cc1` gave a TGI of more than 100 µM.
Take `COc1cc(-c2nn(-c3ccc(NC(=O)NCCCNC(=O)c4ccccc4)cc3)cc2-c2ccncc2)ccc1Cl`: the GI50 was 0.784 µM and the TGI is more than 100 µM.
The molecule `c1ccc(CSSSCc2ccccc2)cc1` yielded a TGI of more than 100 µM.
`COc1cccc2c1C(=O)c1c(O)c3c(c(O)c1C2=O)CC(O)(C(=O)CO)CC3OC1CC(N)C(I)C(C)O1` (stereo not given) had a TGI of more than 100 µM.
Regarding `CC1(C)C(=NN=C(N)N)C(C)(C)C1=NN=C(N)N`, the TGI is more than 100 µM.
Still for that read-out and setting: the value for `CC(C)(C)N/N=C(\C(=O)Nc1ccc([N+](=O)[O-])cc1[N+](=O)[O-])c1nc2ccc([N+](=O)[O-])cc2[nH]c1=O` was more than 100 µM; that for `COC(=O)C([C@H]1CC[C@H](OCc2ccccc2)[C@@]1(O)COCc1ccccc1)C(C)(O)CCc1ccccc1` (stereo not given in full) was more than 100 µM; that for `CN(C)c1ccc(/C=N/N=C2\C(=O)Nc3c(Cl)cc(Cl)cc32)cc1` was more than 100 µM.
Take `Clc1ccc(C2ON=C(c3ccccc3)N2C23CC4CC(CC(C4)C2)C3)c(Cl)c1` (stereo not given): the TGI is more than 10 µM.
`O=C(O)c1sccc1O`: the GI50 was 47.8 µM and the TGI is more than 100 µM.
With `O=C1C(=O)c2ccccc2C(O)=C1Cc1ccccc1`, the TGI was more than 100 µM.
As for `CC1(C)CC(=O)c2c(nc3c(ccc4ccccc43)c2-c2ccc(NC(=O)CCCC(=O)Nc3ccc(-c4c5c(nc6c4ccc4ccccc46)CC(C)(C)CC5=O)cc3)cc2)C1`, the TGI is more than 100 µM.
As for `CN(C)CCNC(=O)c1cnn(C)c1[N+](=O)[O-]`, the TGI is more than 100 µM.
On the same count and under the same terms, then `CCCCCCCC/C=C\CCCCCCC/C=C1/C[C@](/C=C/C(=O)OC)(CO)OC1=O`, with 30.5 µM; and `SCCCSCCSCCCSCCS`, with more than 100 µM.
The same measure, in the same setting: then `CCC1([N+](=O)[O-])CC2C=CC1C2` (stereo not given), with more than 100 µM; and `CN(C)CCCNC(=O)N/N=C\c1cccc2ccccc12`, with more than 10 µM; and `COc1ccccc1-n1c(C)nc2ccccc2c1=O`, with more than 100 µM.
Molecule `Nc1nc(-c2ccccc2)cc(-c2ccccc2O)n1` showed a TGI of more than 100 µM.
For `COC(=O)c1c2c(c3[nH]c4ccccc4c3c1C(=O)OC)C(=O)C1=C(C2=O)C2(Cl)C(Cl)C(Cl)C1(Cl)C2(Cl)Cl` (stereo not given), the TGI was more than 100 µM.
`CC(=NCC(=O)O)c1ccccc1` displayed a TGI of more than 100 µM.
In turn, `CC(=O)NC1=C(C)C(=O)c2c(nc3n2CCC3OC(=O)CCl)C1=O` (stereo not given) gave a TGI of 31.1 µM.
In turn, `O=C1CCC(c2nc3cc(Cl)ccc3o2)C(=O)N1` (stereo not given) yielded a TGI of more than 100 µM.
`CCc1c(C)[nH]c2c1/C(=N/N=C1\CCCc3[nH]c(C)c(CC)c31)CCC2` yielded a TGI of more than 100 µM.
On the same count and under the same terms, the value for `Cc1ccc(Nc2nc(C)c(C(=O)CC(=O)C(=O)Nc3c(C)cccc3C(C)(C)C)s2)cc1` was more than 100 µM.
As to `FC(F)(F)c1cccc2ns[s+]c12`, the TGI is more than 100 µM.
The molecule `O=[N+]([O-])c1cccc(-c2ncnc(-c3cccc([N+](=O)[O-])c3)n2)c1` registered a TGI of more than 100 µM.
The molecule `Nc1ccn(C2OC(COP(=O)(O)OCC3OC(n4cc(F)c(=O)[nH]c4=O)CC3O)C(O)C2O)c(=O)n1` (stereo not given) showed a TGI of more than 100 µM.
In turn, `COC(=S)OC1CC(n2cnc3c(=O)[nH]cnc32)OC1CO[Si](C)(C)C(C)(C)C` (stereo not given) returned a TGI of more than 100 µM.
The same measure, in the same setting: the value for `O=C(/C=C/c1cccc([N+](=O)[O-])c1)c1cccnc1` was more than 100 µM; that for `CCOc1ccc2nc3cc(N=Nc4ccc(N)nc4N)ccc3c(N)c2c1` was 6.42 µM.
With `Cc1nc2ccccc2c(/C=C/c2ccc(Cl)cc2)c1C(=O)/C=C/c1ccc(F)cc1`, the GI50 is 1.47 µM and the TGI worked out at 2.82 µM.
`Cc1cc(I)cc(CN(C)CCN2CCOCC2)c1O`: the GI50 is more than 85.1 µM and the TGI was more than 100 µM.
With `COc1ccc2[nH]c(C(O)(Cc3cccnc3)Cc3cccnc3)cc2c1`, the TGI was more than 100 µM.
On the same count and under the same terms, then `CO/C(N)=C(\C#N)N=Cc1cccnc1`, with more than 100 µM.
On to `O=Cc1c(Cn2ccnc2)c2cc([N+](=O)[O-])ccc2n1Cc1ccccc1`, for which the TGI was more than 100 µM.
Consider `CCn1cc(C(=O)N/N=C/c2ccc(Br)cc2)c(=O)c2cc(F)c(N3CCNC(C)C3)c(F)c21` (stereo not given), for which the GI50 was 1.68 µM and the TGI was 3.1 µM.
Turning to `COc1cc2c(cc1OC)C(Cc1ccc(Oc3cc(CC4c5cc(OC)c(OC)cc5CCN4C)ccc3O)cc1)N(C)CC2` (stereo not given), the TGI is more than 100 µM.
For `O=C(CNc1c(Cl)cccc1Cl)Nc1ccc(-c2nc3ccccc3s2)cc1`, the GI50 is 2.07 µM and the TGI turned out to be 4.36 µM.
`Cc1c2cnccc2c(C)c2c1c1ccccc1n2CC1CO1` (stereo not given) yielded a TGI of 5.74 µM.
For the molecule `Cn1c(-c2c(N)n(Cc3ccc(C(F)(F)F)cc3)c3nc(C#N)c(C#N)nc23)nc2ccccc21`, the GI50 is 30 µM and the TGI is more than 100 µM.
`C[C@H]1CC[C@@H]2[C@@H](C)C[C@H]3[C@@H]4C(C)(C)OC(=O)[C@]4(C)C(=O)[C@@]23C1=O` came in with a TGI of more than 100 µM.
